# According to ChEMBL document CHEMBL5606460, “ASAP - DENV-2 NS2B-NS3 protease fluorescence single point” (2024):
# The campaign covered roughly 2,000 compounds. About 110 (5.5%) showed an effect of 50% or more. The list shows a part of the results.
# Target: Genome polyprotein (dengue virus type 2) (UniProt P29990)
# [1] = Thailand/16681/1984, Concentration 25.0 uM, Number of replicates 1.0
compound,measurement,setting,value
CCN1CCOC[C@H]1C(=O)Nc1cc(Cl)cc(C(=O)NC(C)(C)CO)c1,inhibition,"Thailand/16681/1984, Concentration 49.5 uM, Number of replicates 2.0, Standard deviation 0.6499972535452555 %",-1.27%
same,inhibition,"Thailand/16681/1984, Concentration 99.01 uM, Number of replicates 2.0, Standard deviation 0.004226991730854585 %",-2.97%
same,inhibition,"Thailand/16681/1984, Concentration 198.0 uM, Number of replicates 2.0, Standard deviation 1.831169890174156 %",-0.762%
CN1CCN(C(=O)C2CCN(C(=O)C3CCN(c4ccc(C=O)cc4)CC3)CC2)CC1,inhibition,[1],10.4%
O=C(N[C@@H](Cc1ncc[nH]1)c1ccccc1)c1ccc2c(c1)B(O)OC2,inhibition,"Thailand/16681/1984, Concentration 49.5 uM, Number of replicates 2.0, Standard deviation 1.0122637885717318 %",-5.27%
same,inhibition,"Thailand/16681/1984, Concentration 99.01 uM, Number of replicates 2.0, Standard deviation 7.4966370167471315 %",-1.36%
same,inhibition,"Thailand/16681/1984, Concentration 198.0 uM, Number of replicates 2.0, Standard deviation 3.0828684078497304 %",-3.8%
O=Cc1ccc(N2CCC(C(=O)N3CCN(c4cccc5sccc45)CC3)CC2)cc1,inhibition,[1],9.91%
CNC(=O)c1cc(Cl)cc(OC)c1NS(=O)(=O)c1ccc(Oc2ccccc2Cl)cc1,inhibition,"Thailand/16681/1984, Concentration 49.5 uM, Number of replicates 2.0, Standard deviation 0.8103097460864452 %",1.45%
same,inhibition,"Thailand/16681/1984, Concentration 99.01 uM, Number of replicates 2.0, Standard deviation 1.6946405270728757 %",1.53%
same,inhibition,"Thailand/16681/1984, Concentration 198.0 uM, Number of replicates 2.0, Standard deviation 1.1024722794831296 %",-0.559%
COc1cc(CC(=O)N2CCN(C(C)=O)CC2)nc(N2CCNCC2)n1,inhibition,"Thailand/16681/1984, Concentration 49.5 uM, Number of replicates 2.0, Standard deviation 1.979205385065759 %",-3.64%
same,inhibition,"Thailand/16681/1984, Concentration 99.01 uM, Number of replicates 2.0, Standard deviation 1.6826594845935323 %",-3.2%
same,inhibition,"Thailand/16681/1984, Concentration 198.0 uM, Number of replicates 2.0, Standard deviation 2.319277010344762 %",-4.32%
CN(Cc1ccc(Cl)c(Cl)c1)C(=O)C1CCN(c2ccc(C=O)cc2)CC1,inhibition,[1],9.81%
CNC(=O)c1cn(S(=O)(=O)c2ccc(Oc3ccccc3Cl)cc2)c2ccc(Cl)cc12,inhibition,"Thailand/16681/1984, Concentration 49.5 uM, Number of replicates 2.0, Standard deviation 1.1380993582408887 %",0.625%
same,inhibition,"Thailand/16681/1984, Concentration 99.01 uM, Number of replicates 2.0, Standard deviation 1.0406365412270837 %",4.48%
same,inhibition,"Thailand/16681/1984, Concentration 198.0 uM, Number of replicates 2.0, Standard deviation 0.5161930213749926 %",12.8%
Cc1ccc(Cl)c(CNC(=O)C2CCN(c3ccc(C=O)cc3)CC2)c1,inhibition,[1],11.9%
c1cncc(CN2CCC(c3c[nH]c4cccnc34)CC2)c1,inhibition,"Thailand/16681/1984, Concentration 49.5 uM, Number of replicates 2.0, Standard deviation 0.0717489720537479 %",-0.221%
same,inhibition,"Thailand/16681/1984, Concentration 99.01 uM, Number of replicates 2.0, Standard deviation 0.5591472085741809 %",0.281%
same,inhibition,"Thailand/16681/1984, Concentration 198.0 uM, Number of replicates 2.0, Standard deviation 0.5232727014738827 %",-0.08%
CCCCCC(=O)N[C@H](C(=O)Nc1cccc(C(N)=O)c1)c1ccc(OCc2ccccc2)cc1,inhibition,"Thailand/16681/1984, Concentration 49.5 uM, Number of replicates 2.0, Standard deviation 0.8710225342474791 %",1.48%
same,inhibition,"Thailand/16681/1984, Concentration 99.01 uM, Number of replicates 2.0, Standard deviation 1.9032952704635988 %",1.26%
same,inhibition,"Thailand/16681/1984, Concentration 198.0 uM, Number of replicates 2.0, Standard deviation 1.599366016580605 %",3.23%
CC(C)(CO)CN1CC[C@H](c2c[nH]c3ccccc23)C1,inhibition,"Thailand/16681/1984, Concentration 49.5 uM, Number of replicates 2.0, Standard deviation 0.011344920094768412 %",-5.3%
same,inhibition,"Thailand/16681/1984, Concentration 99.01 uM, Number of replicates 2.0, Standard deviation 0.1670795483912504 %",-4.13%
same,inhibition,"Thailand/16681/1984, Concentration 198.0 uM, Number of replicates 2.0, Standard deviation 0.08457102328498975 %",-2.75%
Cc1ccc2cccc(NC(=O)C3CCN(c4ccc(C=O)cc4)CC3)c2n1,inhibition,[1],50.9%
